# Measurements reported in ChEMBL document CHEMBL5606458, “ASAP - ZIKV NS2B-NS3 protease fluorescence single point” (2024).
# In all, about 2,700 compounds went through this assay and about 160 (5.9%) showed an effect of 50% or more. The list shows a part of the results.
# Biological target: Nonstructural protein 3 (Zika virus) (UniProt A0A024AXB9)
# [1] = PRVABC59, Concentration 50.0 uM, Number of replicates 1.0
# [2] = PRVABC59, Concentration 15.0 uM, Number of replicates 1.0
# [3] = PRVABC59, Concentration 10.0 uM, Number of replicates 1.0
# Sequence of UniProt A0A024AXB9 (A0A024AXB9 as listed by the source): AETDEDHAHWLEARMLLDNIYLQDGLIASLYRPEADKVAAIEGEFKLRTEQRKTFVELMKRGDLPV
compound,measurement,setting,value
Cc1c(Br)cnc(NC(=O)C2CCN(c3ccc(C=O)cc3)CC2)c1[N+](=O)[O-],inhibition,[1],22.8%
CS(=O)(=O)c1ccc(O)c(NC(=O)C2CCN(c3ccc(C=O)cc3)CC2)c1,inhibition,[1],26.6%
O=C(c1cc(Cl)ccc1NS(=O)(=O)c1ccc(Oc2ccccc2Cl)cc1)N1CCC(c2noc3ccc(F)cc23)CC1,inhibition,[2],8.36%
CN(CC[C@H](O)c1cccs1)C(=O)C1CCN(c2ccc(C=O)cc2)CC1,inhibition,[1],27.6%
O=C(c1cc(Cl)ccc1NS(=O)(=O)c1ccc(Oc2ccccc2Cl)cc1)N(Cc1ccc([N+](=O)[O-])cc1)C1CC1,inhibition,[2],15.4%
O=Cc1ccc(N2CCC(C(=O)Nc3cc(F)c(Br)c(F)c3)CC2)cc1,inhibition,[1],24.5%
Cc1ccsc1CN(CC(C)C)C(=O)c1cc(Cl)ccc1NS(=O)(=O)c1ccc(Oc2ccccc2Cl)cc1,inhibition,[2],24.9%
O=Cc1ccc(N2CCC(C(=O)NC3CCN(C(=O)C4CC4)CC3)CC2)cc1,inhibition,[1],3.45%
O=C(c1cc(Cl)ccc1NS(=O)(=O)c1ccc(Oc2ccccc2Cl)cc1)N1CCN(c2cccc(O)c2)CC1,inhibition,[2],26.1%
Cc1cc(CO)c2cccc(NC(=O)C3CCC(N)CC3)c2n1 (centres undefined),inhibition,"PRVABC59, Concentration 49.95 uM, Number of replicates 2.0, Standard deviation 0.4998117214705663 %",93.2%
same,inhibition,"PRVABC59, Concentration 99.9 uM, Number of replicates 2.0, Standard deviation 0.37327676699721984 %",95.4%
C[C@@H](C(=O)NCc1ccc(N2CCN(C)CC2)cc1)c1ccccc1,inhibition,"PRVABC59, Concentration 49.5 uM, Number of replicates 2.0, Standard deviation 7.6370315408848 %",-2.24%
same,inhibition,"PRVABC59, Concentration 99.01 uM, Number of replicates 2.0, Standard deviation 8.327090090436085 %",-3.26%
same,inhibition,"PRVABC59, Concentration 198.0 uM, Number of replicates 2.0, Standard deviation 7.026223733637278 %",-2.93%
O=Cc1ccc(N2CCC(C(=O)N3CCN(C(=O)[C@@H]4CCCO4)CC3)CC2)cc1,inhibition,[1],21.4%
O=Cc1ccc(N2CCC(C(=O)N3CCC(N4CCCC4=O)CC3)CC2)cc1,inhibition,[1],23.2%
O=C(Nc1ccc(-n2ccnc2)cc1)c1cc(Cl)ccc1NS(=O)(=O)c1ccc(Oc2ccccc2Cl)cc1,inhibition,[2],63.6%
O=Cc1ccc(N2CCC(C(=O)N3CC[C@@]4(O)CCCC[C@H]4C3)CC2)cc1,inhibition,[1],25.9%
CNC(=O)c1cc(Cl)ccc1NS(=O)(=O)c1ccc(OC)nc1,inhibition,"PRVABC59, Concentration 49.5 uM, Number of replicates 2.0, Standard deviation 0.29264209077575354 %",-3.57%
same,inhibition,"PRVABC59, Concentration 99.01 uM, Number of replicates 2.0, Standard deviation 0.42851139208250477 %",-3.96%
same,inhibition,"PRVABC59, Concentration 198.0 uM, Number of replicates 2.0, Standard deviation 1.5405512695954107 %",-5.44%
Cc1cc(CO)c2cccc(C[C@H](NC(=O)C(=O)c3ccco3)C(=O)O)c2n1,inhibition,"PRVABC59, Concentration 49.95 uM, Number of replicates 2.0, Standard deviation 2.4287821935024936 %",-3.34%
same,inhibition,"PRVABC59, Concentration 99.9 uM, Number of replicates 2.0, Standard deviation 2.478963622185565 %",2.26%
CNC(=O)c1nc(Cl)ccc1NS(=O)(=O)c1ccc(Oc2ccccc2Cl)cc1,inhibition,"PRVABC59, Concentration 49.5 uM, Number of replicates 2.0, Standard deviation 0.024233932131581936 %",-1.72%
COc1cccc(CNC(=O)c2cc(Cl)ccc2NS(=O)(=O)c2ccc(Oc3ccccc3Cl)cc2)c1OC,inhibition,[2],26.8%
Cc1nn(Cc2cccc(F)c2F)cc1C1CCNCC1,inhibition,"PRVABC59, Concentration 49.5 uM, Number of replicates 2.0, Standard deviation 2.5978663303026193 %",-8.52%
same,inhibition,"PRVABC59, Concentration 99.01 uM, Number of replicates 2.0, Standard deviation 1.428439641032068 %",-8.17%
same,inhibition,"PRVABC59, Concentration 198.0 uM, Number of replicates 2.0, Standard deviation 0.38658741610653635 %",-7.04%
O=C(NCCCOCCOCCO)c1cc(Cl)ccc1NS(=O)(=O)c1ccc(Oc2ccccc2Cl)cc1,inhibition,[2],5.28%
NCc1cccc(NC(=O)[C@H]2c3ccccc3OCCN2C(=O)OCc2ccccc2)c1,inhibition,"PRVABC59, Concentration 49.5 uM, Number of replicates 2.0, Standard deviation 1.6336698212723795 %",-1.56%
same,inhibition,"PRVABC59, Concentration 99.01 uM, Number of replicates 2.0, Standard deviation 2.6735137910132156 %",-1.46%
same,inhibition,"PRVABC59, Concentration 198.0 uM, Number of replicates 2.0, Standard deviation 0.8375799766974225 %",0.557%
CC1(C)CC(O)CC(C)(C)N1C(=O)c1cc(Cl)ccc1NS(=O)(=O)c1ccc(Oc2ccccc2Cl)cc1,inhibition,[2],17.1%
Cc1nccn1-c1ccc(NC(=O)C2CCN(c3ccc(C=O)cc3)CC2)cc1,inhibition,[1],26.4%
CC(C)(C)c1ccc(O)c(NC(=O)C2CCN(c3ccc(C=O)cc3)CC2)c1,inhibition,[1],29.1%
COc1ccc(Cl)c(NC(=O)c2cc(Cl)ccc2NS(=O)(=O)c2ccc(Oc3ccccc3Cl)cc2)c1,inhibition,[2],25.8%
N#Cc1ccc(Cl)c(NC(=O)C2CCN(c3ccc(C=O)cc3)CC2)c1,inhibition,[1],23.1%
N#CCCN(Cc1cccnc1)C(=O)C1CCN(c2ccc(C=O)cc2)CC1,inhibition,[3],19.5%
O=Cc1ccc(N2CCC(C(=O)Nc3cccc(-c4ccccc4)c3)CC2)cc1,inhibition,[1],-1.54%
O=C1COc2cccc(CN3CCC(c4c[nH]c5cccnc45)CC3)c2N1,inhibition,"PRVABC59, Concentration 49.5 uM, Number of replicates 2.0, Standard deviation 2.0822807293083656 %",2.91%
same,inhibition,"PRVABC59, Concentration 99.01 uM, Number of replicates 2.0, Standard deviation 2.4375393813923902 %",5.58%
same,inhibition,"PRVABC59, Concentration 198.0 uM, Number of replicates 2.0, Standard deviation 1.957810886118356 %",3.25%
Cc1cccc(C)c1NC(=O)CN1CCN(C(=O)c2cc(Cl)ccc2NS(=O)(=O)c2ccc(Oc3ccccc3Cl)cc2)CC1,inhibition,[2],16.7%
CNC(=O)c1cc(Cl)ccc1NS(=O)(=O)c1ccc(CN(C)C)cc1,inhibition,"PRVABC59, Concentration 49.5 uM, Number of replicates 2.0, Standard deviation 0.11107237157276076 %",-1.35%
same,inhibition,"PRVABC59, Concentration 99.01 uM, Number of replicates 2.0, Standard deviation 0.5937321801607277 %",-1.18%
same,inhibition,"PRVABC59, Concentration 198.0 uM, Number of replicates 2.0, Standard deviation 1.4419211113183994 %",1.44%
Cc1cc(CO)c2cccc(NCC3CCNCC3)c2n1,inhibition,"PRVABC59, Concentration 99.9 uM, Number of replicates 2.0, Standard deviation 2.951218090372617 %",-5.37%
O=Cc1ccc(N2CCC(C(=O)N3Cc4ccc(Br)cc4C3)CC2)cc1,inhibition,[1],22.1%
O=Cc1ccc(N2CCC(C(=O)NCc3noc(-c4ccco4)n3)CC2)cc1,inhibition,[3],20.9%
Cc1cc(CO)c2cccc(CC(=O)Nc3cccc(C(N)=O)c3)c2n1,inhibition,"PRVABC59, Concentration 49.95 uM, Number of replicates 2.0, Standard deviation 0.035627236808440856 %",58.9%
same,inhibition,"PRVABC59, Concentration 99.9 uM, Number of replicates 2.0, Standard deviation 0.025447255606513557 %",72.8%
O=C(c1cc(Cl)ccc1NS(=O)(=O)c1ccc(Oc2ccccc2Cl)cc1)N(C1CCCCC1)C1CCCCC1,inhibition,[2],15.4%
O=Cc1ccc(N2CCC(C(=O)Nc3ccc(-c4ccccc4)cc3)CC2)cc1,inhibition,[1],19.3%
Cc1cc(CO)c2cccc(Cc3cccc(NC(=O)c4cccc(Cn5cncn5)c4)c3)c2n1,inhibition,"PRVABC59, Concentration 49.95 uM, Number of replicates 2.0, Standard deviation 0.822975548413545 %",-3.88%
same,inhibition,"PRVABC59, Concentration 99.9 uM, Number of replicates 2.0, Standard deviation 0.7828305698397972 %",-0.852%
O=Cc1ccc(N2CCC(C(=O)NCc3nc(-c4ccccn4)no3)CC2)cc1,inhibition,[3],23.5%
O=C(NCc1ccc2[nH]cnc2c1)[C@@]1(c2ccc(F)cc2)CCCNC1,inhibition,"PRVABC59, Concentration 50.0 uM, Number of replicates 2.0, Standard deviation 0.09228322221290718 %",2.42%
same,inhibition,"PRVABC59, Concentration 100.0 uM, Number of replicates 2.0, Standard deviation 1.0048608632181875 %",2.57%
same,inhibition,"PRVABC59, Concentration 200.0 uM, Number of replicates 2.0, Standard deviation 1.443205873701557 %",4.96%
O=Cc1ccc(N2CCC(C(=O)Nc3ccc(C(F)(F)F)cc3[N+](=O)[O-])CC2)cc1,inhibition,[1],22.3%
O=Cc1ccc(N2CCC(C(=O)Nc3ccc(-n4cccn4)cc3)CC2)cc1,inhibition,[1],21.4%
O=Cc1ccc(N2CCC(C(=O)NCc3ccc(C(F)(F)F)nc3)CC2)cc1,inhibition,[3],24.8%
COc1cccc(CCNC(=O)c2cc(Cl)ccc2NS(=O)(=O)c2ccc(Oc3ccccc3Cl)cc2)c1,inhibition,[2],27.6%
O=C(c1cc(Cl)ccc1NS(=O)(=O)c1ccc(Oc2ccccc2Cl)cc1)N(CC1CC1)C[C@H]1CCCO1,inhibition,[2],18.4%
